The record followed here is the supplement of paper PMC12645437, “Orthogonal IMiD-Degron Pairs Induce Selective Protein Degradation in Cells” (ACS Chemical Biology, 2025).

This is one part of the list.
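Note: jurkat cells carrying a lentiviral library of mutant zinc finger degrons fused to EGFP plus mCherry, mCherry+ cells FACS sorted, degron abundance counted by next-generation sequencing.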

The target in the assay is no compound (DMSO). Put plainly: log2 fold change of degron read counts, EGFP-low vs EGFP+ sorted cells; higher = lower degron-EGFP level without compound (poor expression or instability). The following applies: compound: DMSO control; 18 h.
Regarding FCCEICGRIFTQKGNLLRHIKL, the “log2 fold change of degron read counts” value was -0.275. For FKCNQCGAKFTQKGNLLRHIKL, the “log2 fold change of degron read counts” value was -1.17. The value for LRCPICGFACTQKGNLLRHIKL was 1.19; that for FGCEQCGAGFTQKGNLLRHIKL was -0.783. The value for FVCPVCGALFTQKGNLLRHIKL was 0.266; that for FCCEICGRWFTQKGNLLRHIKL was -0.143. As to FGCNVCGAQFTQKGNLLRHIKL, the “log2 fold change of degron read counts” value was -1.07. For the sequence FGCPICGAAFTQKGNLLRHIKL, the “log2 fold change of degron read counts” value was determined as 0.0544.

Take FVCDVCGAIFTQKGNLLRHIKL: the “log2 fold change of degron read counts” value was -1.1. The value for FFCEICGHKFTQKGNLLRHIKL was -0.867; that for FGCPICGALFTQKGNLLRHIKL was 0.113; that for FFCEVCGAHFTQKGNLLRHIKL was -1.08. Turning to FHCEICGRGFTQKGNLLRHIKL, the “log2 fold change of degron read counts” value is -0.791.

As to FWCDICGARFTQKGNLLRHIKL, the “log2 fold change of degron read counts” value is -0.0623. The result for LGCNQCGFRCTQKGNLLRHIKL reads 2.17. Consider FYCPICGASFTQKGNLLRHIKL, for which the “log2 fold change of degron read counts” value is -0.263. The result for FDCPICGADFTQKGNLLRHIKL reads -1.14; that for LVCNQCGFQCTQKGNLLRHIKL, -0.242. FHCSVCGHKFTQKGNLLRHIKL: the “log2 fold change of degron read counts” value was -1.01. FYCNQCGHYFTQKGNLLRHIKL: the “log2 fold change of degron read counts” value is 0.974. The value for FECNVCGAGFTQKGNLLRHIKL was -2.33; that for LFCEICGFTCTQKGNLLRHIKL was 0.148; that for FECEQCGAAFTQKGNLLRHIKL was -1.73.

As to FCCNQCGRKFTQKGNLLRHIKL, the “log2 fold change of degron read counts” value was -0.13. As for FFCEICGHFFTQKGNLLRHIKL, the “log2 fold change of degron read counts” value was determined as 0.75.

With FECPICGHFFTQKGNLLRHIKL, the “log2 fold change of degron read counts” value is -0.521. The result for FQCPQCGARFTQKGNLLRHIKL reads -0.998; that for FDCNQCGRTFTQKGNLLRHIKL, -0.349. On to FVCDQCGACFTQKGNLLRHIKL, for which the “log2 fold change of degron read counts” value was -1.28. The result for FKCEQCGAIFTQKGNLLRHIKL reads -0.636. LQCNQCGFKCTQKGNLLRHIKL: the “log2 fold change of degron read counts” value came to 0.228.

Consider LWCEICGFDCTQKGNLLRHIKL, for which the “log2 fold change of degron read counts” value turned out to be 0.895. As to LSCNQCGFYCTQKGNLLRHIKL, the “log2 fold change of degron read counts” value came out at 1.55.

Take FYCNVCGAAFTQKGNLLRHIKL: the “log2 fold change of degron read counts” value was -0.746. For the sequence FICPICGHKFTQKGNLLRHIKL, the “log2 fold change of degron read counts” value was -1.4. The value for FFCEICGAWFTQKGNLLRHIKL was 0.408; that for FQCEQCGAMFTQKGNLLRHIKL was -2.04; that for LDCNQCGFTCTQKGNLLRHIKL was 0.644. As for FQCEQCGAVFTQKGNLLRHIKL, the “log2 fold change of degron read counts” value was -2.33. As for FGCDVCGAQFTQKGNLLRHIKL, the “log2 fold change of degron read counts” value was -1.27. Regarding FMCNICGAIFTQKGNLLRHIKL, the “log2 fold change of degron read counts” value amounted to 1.41.

For the sequence FFCPICGHWFTQKGNLLRHIKL, the “log2 fold change of degron read counts” value amounted to 1.55.

Consider FSCDVCGARFTQKGNLLRHIKL, for which the “log2 fold change of degron read counts” value is -0.777. The value for LKCNQCGFYCTQKGNLLRHIKL was 1.25; that for FRCEICGHVFTQKGNLLRHIKL was -0.875. As for FVCNVCGASFTQKGNLLRHIKL, the “log2 fold change of degron read counts” value was -0.772.

For the sequence FKCPQCGADFTQKGNLLRHIKL, the “log2 fold change of degron read counts” value is -2.12. The result for FECNQCGHYFTQKGNLLRHIKL reads 0.159; that for FSCPQCGAWFTQKGNLLRHIKL, -0.546; that for FYCNQCGRYFTQKGNLLRHIKL, 1.09.
